{"source": "PubChem BioAssay AID624296", "about": "(National Center for Advancing Translational Sciences (NCATS), 2012)", "note": "Out of some 350,000 compounds screened, about 9,900 (2.8%) were called active. Inconclusive results, whose numbers are uncertain, are shown with a selection of clear calls. Calls follow the shape of the dose curve; as a rule, active = well fitted activation curve with a large enough effect; inconclusive = small, poorly fitted or top-dose-only effect; inactive = no such curve, though single readings can be large or run the other way. Potencies of inconclusive entries are left out as doubtful fits. Potency is read from the fitted curve at half-maximal effect; tags tell the direction and shape of the fitted curve.", "data": [{"assay": "A quantitative high throughput screen for small molecules that induce DNA re-replication in MCF 10a normal breast cells; also: nearly all actives have a fitted effect of over 50% in size; as to activity, positive = re-replication: % of control where 0% means no effect.", "details": "MCF 10A DNA re-replication, Hoechst nuclear intensity, 48 h; activity, positive = re-replication: at 46.1 µM (top of the series)", "values": [{"smiles": "O=C(c1ccccc1)c1ccc(OCCCN2CCCCC2)cc1", "Potency": "inconclusive [activator, single point]"}, {"smiles": "N#CC1=C(SCC(=O)c2ccc(Br)cc2)NC2=C(C(=O)CCC2)C1c1ccco1", "note": "(centres undefined)", "Potency": "active: 7.94 µM"}, {"smiles": "OC(CNCc1ccccc1)COc1ccccc1", "note": "(centres undefined)", "activity, positive = re-replication": "inactive: -1.7%"}, {"smiles": "Cc1cccc(C=CC(=O)c2ccc(Cl)cc2)c1", "Potency": "inconclusive [activator, single point]"}, {"smiles": "CC1CCN(S(=O)(=O)c2cn(CC(=O)Nc3ccc(C#N)cc3)cn2)CC1", "Potency": "inconclusive [activator, partial curve, poor fit]"}, {"smiles": "COc1cc2cc(CN(Cc3cccs3)C(=S)Nc3ccccc3)c(=O)[nH]c2cc1OC", "Potency": "inconclusive [activator, single point]"}, {"smiles": "O=C(COC(=O)C1=COCCO1)Nc1ccc(Br)cc1Br", "activity, positive = re-replication": "inactive: -1.89%"}, {"smiles": "CCOc1ccc2nc(NC(=O)CSc3ccc(Cl)cc3)sc2c1", "activity, positive = re-replication": "inactive: 13.2%"}, {"smiles": "C=CCNC(=S)NNC(=O)C(CCCC)CC(O)COCC(C)C", "note": "(centres undefined)", "Potency": "inconclusive [activator, partial curve, poor fit]"}, {"smiles": "CC(=O)N1N=C(c2ccccc2O)CC1c1cccs1", "note": "(centres undefined)", "Potency": "inconclusive [activator, partial curve, poor fit]"}, {"smiles": "Cc1nn(CCO)c(N)c1C1(O)C(=O)Nc2c(Cl)cc(Cl)cc21", "note": "(centres undefined)", "Potency": "inconclusive [activator, single point]"}, {"smiles": "COc1ccc(C2NC(c3ccc(OC)c(OC)c3OC)C(C)C(=O)C2C)c(OC)c1OC", "note": "(centres undefined)", "Potency": "inconclusive [activator, single point]"}, {"smiles": "Cc1ccc(C(C)C)cc1OCCCCN1CCCC1", "Potency": "inconclusive [activator, partial curve]"}, {"smiles": "COc1ccc(-c2csc(NC(=O)CS(=O)(=O)c3ccccc3)n2)cc1", "activity, positive = re-replication": "inactive: 19.4%"}, {"smiles": "COc1cc2c(cc1OC)C(C(=O)Nc1ccc(F)c(Cl)c1)CC(=O)N2", "note": "(centres undefined)", "Potency": "inconclusive [activator, partial curve, poor fit]"}, {"smiles": "Cc1cc(C(=O)CSc2nc3ccccc3o2)c(C)n1CC1CCCO1", "note": "(centres undefined)", "Potency": "inconclusive [activator, full curve, poor fit]"}, {"smiles": "COc1ccc(CNC(=O)c2ccc(S(=O)(=O)N3CC(C)CC(C)C3)cc2)cc1OC", "note": "(centres undefined)", "activity, positive = re-replication": "inactive: 5.32%"}, {"smiles": "O=C1CCCN1CC(=O)N1CCCC(Nc2cccc(F)c2)C1", "note": "(centres undefined)", "activity, positive = re-replication": "inactive: -1.91%"}, {"smiles": "COc1ccc(C(=O)Nc2ncccc2C)cc1S(=O)(=O)N1CCOCC1", "activity, positive = re-replication": "inactive: 0.208%"}, {"smiles": "CCCc1nc(-c2ccc(-c3ccc(F)cc3)cc2)no1", "activity, positive = re-replication": "inactive: -0.523%"}, {"smiles": "O=C(NCCO)c1ccc(Cl)c(Cl)c1", "Potency": "inconclusive [activator, single point]"}, {"smiles": "CC(=O)Nc1cc(C)c(S(C)(=O)=O)c(C)c1", "Potency": "inconclusive [activator, single point]"}, {"smiles": "COc1ccc(C(=O)Nc2cc(-c3ccccc3)nn2-c2ccccc2F)cc1", "Potency": "inconclusive [activator, partial curve, poor fit]"}, {"smiles": "Cc1nc2c(o1)C(=O)c1ccccc1C2=Nc1ccccc1", "Potency": "active: 6.51 µM"}, {"smiles": "COc1ccc(S(=O)(=O)N2CCCCC2)cc1NCC(=O)Nc1ccc(C)cc1", "Potency": "inconclusive [activator, partial curve, poor fit]"}, {"smiles": "Clc1ccc2oc(-c3cccnc3NCc3ccccc3)nc2c1", "Potency": "active: 16.4 µM"}, {"smiles": "O=C(Nc1ccc(Cl)cc1F)c1ccc2c(c1)C(=O)N(Cc1ccncc1)C2=O", "Potency": "inconclusive [activator, partial curve, poor fit]"}, {"smiles": "COCCn1nnnc1CN1CCN(C(=O)c2ccco2)CC1", "Potency": "inconclusive [activator, single point]"}, {"smiles": "CCOC(=O)C1CCN(S(=O)(=O)Cc2ccc(Cl)cc2)CC1", "Potency": "inconclusive [activator, single point]"}, {"smiles": "CC1=C(C(=O)OC(C)C)C(c2ccc(Br)s2)NC(=O)N1", "note": "(centres undefined)", "Potency": "inconclusive [activator, single point]"}, {"smiles": "N#CC1=C(S)N(c2ccc(F)cc2)C2(CCCCC2)NC1=O", "Potency": "inconclusive [activator, partial curve, poor fit]"}, {"smiles": "COc1cc(NC(=O)c2ccc(Cl)cc2Cl)ccc1-c1cc2ccccc2oc1=O", "Potency": "inconclusive [activator, partial curve, poor fit]"}, {"smiles": "COc1ccccc1NC(=O)c1nn(-c2ccccc2)ccc1=O", "Potency": "inconclusive [activator, partial curve, poor fit]"}, {"smiles": "CC(C)C1CC(c2ccccc2)(C(CN)CO)CCO1", "note": "(centres undefined)", "Potency": "inconclusive [activator, full curve]"}, {"smiles": "O=S(=O)(Nc1ccc(-n2cnnn2)cc1)c1ccc(Cl)s1", "activity, positive = re-replication": "inactive: -11%"}, {"smiles": "O=C(/C=C/C=C/c1ccccc1)c1ccco1", "Potency": "inconclusive [activator, single point]"}, {"smiles": "COc1ccc2oc(C(=O)OCC(=O)N3CCN(c4ccccc4)CC3)c(C)c2c1", "Potency": "inconclusive [activator, single point]"}, {"smiles": "Cc1nc(CCNC(=O)CC2C(=O)NCCN2Cc2ccccc2F)sc1C", "note": "(centres undefined)", "activity, positive = re-replication": "inactive: -0.358%"}, {"smiles": "COc1cccc(C2CC(c3ccc(Br)cc3)=NN2C(=O)c2ccncc2)c1OC", "note": "(centres undefined)", "Potency": "inconclusive [activator, partial curve, poor fit]"}, {"smiles": "Cc1cc(NC(=O)c2cccnc2Cl)ccc1NC(=O)c1cc2ccccc2o1", "Potency": "inconclusive [activator, single point]"}, {"smiles": "COc1ccc(C2=NC(C)(C)Cc3cc(OC)c(OC)cc32)cc1OC", "Potency": "inconclusive [activator, single point]"}, {"smiles": "CC(C)Nc1nnc(SCC(=O)Nc2ccc3c(c2)C(=O)c2ccccc2C3=O)s1", "Potency": "inconclusive [activator, full curve, poor fit]"}, {"smiles": "COc1cc(NC(=S)NCCN2CCOCC2)cc(OC)c1OC", "Potency": "inconclusive [activator, single point]"}, {"smiles": "CCOC(=O)N1CCN(Cc2nc3cc(NC(=O)c4ccco4)ccc3n2CC)CC1", "activity, positive = re-replication": "inactive: 14%"}]}]}
